Measurements reported in publication PMC4199508.
Results are given in words; binding and its absence hold for the method and conditions named. For part of these data: In cells and extracts the contact can be indirect. Some results given as binding are weak or reduced against the parent protein; the word gives no strength. Where a sequence is shown, tags or fusion partners need not be part of it.

T1: Poz1 (yeast two-hybrid construct) (Schizosaccharomyces pombe) (UniProt O13852)
T1 sequence: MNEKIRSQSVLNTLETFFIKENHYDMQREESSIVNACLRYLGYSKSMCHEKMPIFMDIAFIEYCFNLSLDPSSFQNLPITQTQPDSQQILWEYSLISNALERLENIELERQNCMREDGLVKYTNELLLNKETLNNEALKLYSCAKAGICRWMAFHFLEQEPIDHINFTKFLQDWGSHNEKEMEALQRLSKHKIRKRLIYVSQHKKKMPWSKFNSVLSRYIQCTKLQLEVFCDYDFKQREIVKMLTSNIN

T2: Pot1 (yeast two-hybrid construct) (Schizosaccharomyces pombe) (UniProt O13988)
T2 sequence: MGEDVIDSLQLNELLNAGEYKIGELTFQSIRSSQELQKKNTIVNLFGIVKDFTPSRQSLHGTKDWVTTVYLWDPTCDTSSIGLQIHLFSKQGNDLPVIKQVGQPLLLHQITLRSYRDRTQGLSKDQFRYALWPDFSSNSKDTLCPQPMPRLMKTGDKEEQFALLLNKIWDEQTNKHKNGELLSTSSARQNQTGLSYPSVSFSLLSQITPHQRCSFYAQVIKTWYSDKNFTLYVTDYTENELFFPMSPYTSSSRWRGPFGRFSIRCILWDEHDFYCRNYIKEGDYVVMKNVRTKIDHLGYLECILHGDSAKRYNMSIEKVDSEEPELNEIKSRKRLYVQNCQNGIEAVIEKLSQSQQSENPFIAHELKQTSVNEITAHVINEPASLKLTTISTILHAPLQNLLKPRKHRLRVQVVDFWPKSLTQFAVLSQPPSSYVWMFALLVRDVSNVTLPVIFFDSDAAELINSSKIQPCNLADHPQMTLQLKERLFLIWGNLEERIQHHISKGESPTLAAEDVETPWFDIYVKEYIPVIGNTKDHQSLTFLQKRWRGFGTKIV

T3: Pot1 of fission yeast whole cell extract (held on telomeric G-oligo beads) (Schizosaccharomyces pombe (endogenous in fission yeast extract)) (UniProt O13988)
T3 sequence: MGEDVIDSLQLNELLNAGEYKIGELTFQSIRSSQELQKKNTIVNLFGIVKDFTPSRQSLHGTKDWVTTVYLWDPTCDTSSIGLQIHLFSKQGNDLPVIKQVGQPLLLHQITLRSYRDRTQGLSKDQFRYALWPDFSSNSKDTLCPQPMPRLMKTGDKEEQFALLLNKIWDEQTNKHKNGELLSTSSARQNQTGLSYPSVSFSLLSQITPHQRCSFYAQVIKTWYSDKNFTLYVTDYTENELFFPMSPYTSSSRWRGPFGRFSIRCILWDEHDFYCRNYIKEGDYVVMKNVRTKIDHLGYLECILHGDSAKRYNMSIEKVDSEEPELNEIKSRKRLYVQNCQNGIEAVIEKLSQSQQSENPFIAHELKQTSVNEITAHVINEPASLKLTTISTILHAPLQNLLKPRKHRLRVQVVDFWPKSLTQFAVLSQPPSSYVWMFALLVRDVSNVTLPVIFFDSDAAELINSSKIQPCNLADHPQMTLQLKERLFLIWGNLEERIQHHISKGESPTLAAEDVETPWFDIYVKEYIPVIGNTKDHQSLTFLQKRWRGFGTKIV


Assays:
[1] = molecular target: T1, Poz1 (yeast two-hybrid construct) (Schizosaccharomyces pombe); experiment: two-hybrid; S. cerevisiae Y2HGold with GAL4-DBD plasmids mated with Y187 with GAL4-AD plasmids; positive interaction by growth on -His -Ade plates (Figures S1B and S2B also -His +5 mM 3AT)
[2] = molecular target: T2, Pot1 (yeast two-hybrid construct) (Schizosaccharomyces pombe); experiment: as above
[3] = molecular target: T3, Pot1 of fission yeast whole cell extract (held on telomeric G-oligo beads) (Schizosaccharomyces pombe (endogenous in fission yeast extract)); experiment: pull-down; biotinylated telomeric G-tail oligo on streptavidin magnetic beads incubated with 2 mg fission yeast whole cell extract, 2 h 4°C, 150 mM NaCl lysis buffer; Pot1-dependent recovery of Tpz1 seen by western blot; wild type also in ccq1Δ poz1Δ cells

binding [1] | binding [2] | binding [3] | Binder
binds | – | – | Tpz1-FL W498A,I501A (yeast two-hybrid construct) (protein, UniProt O14246 1-508) MSNCLKHPWLENGLLNLIKNADVLPIRVFKCQPLQIFEYIRYEHPIRCKLSDTEFYIEAEFSSQSISDLNNFTEKRITSLRGGIVTLGNFLIHLIPSQSGIIPWIQVESFNFQGCEGAVFGNPKAITTSALFNALLQSPYLAALANEFNRSIKEGSSYQEASLSQQEKPNDNTSNSRDIKNNIQFHWKNMTSLSIEECIIPKGQQLILEKESEENTTHGIYLEERKMAQGLHNSVSETPEVKQEDNDEDLDAYSWSSSTDSAGEIPSLPTNRKILEKIAEKPPPFESPLEDDETPDQTNEHEANQVNVSQLPLNPRGSGISGRPVESTEQLNSSLTIERSQSIQSTDSKQRVETQSHRRSKIEIFDAQDELFDRSICTTIDDSTGKLLNAEETPIKTGDLHSTSASSVISCTPPAINFTSDICNEQIELEYKRKPIPDYDFMKGLETTLQELYVEHQSKKRRLELFQLTNNHQKNSEACEMCRLGLPHGSFFELLRDAKKAEEFRNKS
binds | binds | – | Tpz1-FL L449R (yeast two-hybrid construct) (protein, UniProt O14246 1-508) MSNCLKHPWLENGLLNLIKNADVLPIRVFKCQPLQIFEYIRYEHPIRCKLSDTEFYIEAEFSSQSISDLNNFTEKRITSLRGGIVTLGNFLIHLIPSQSGIIPWIQVESFNFQGCEGAVFGNPKAITTSALFNALLQSPYLAALANEFNRSIKEGSSYQEASLSQQEKPNDNTSNSRDIKNNIQFHWKNMTSLSIEECIIPKGQQLILEKESEENTTHGIYLEERKMAQGLHNSVSETPEVKQEDNDEDLDAYSWSSSTDSAGEIPSLPTNRKILEKIAEKPPPFESPLEDDETPDQTNEHEANQVNVSQLPLNPRGSGISGRPVESTEQLNSSLTIERSQSIQSTDSKQRVETQSHRRSKIEIFDAQDELFDRSICTTIDDSTGKLLNAEETPIKTGDLHSTSASSVISCTPPAINFTSDICNEQIELEYKRKPIPDYDFMKGLETTRQELYVEHQSKKRRLELFQLTNNHQKNSEACEMCRLGLPHGSFFELLRDWKKIEEFRNKS
– | – | binds | Tpz1-myc (full length Tpz1, Tpz1-FL, expressed in fission yeast) (protein, UniProt O14246 1-508) MSNCLKHPWLENGLLNLIKNADVLPIRVFKCQPLQIFEYIRYEHPIRCKLSDTEFYIEAEFSSQSISDLNNFTEKRITSLRGGIVTLGNFLIHLIPSQSGIIPWIQVESFNFQGCEGAVFGNPKAITTSALFNALLQSPYLAALANEFNRSIKEGSSYQEASLSQQEKPNDNTSNSRDIKNNIQFHWKNMTSLSIEECIIPKGQQLILEKESEENTTHGIYLEERKMAQGLHNSVSETPEVKQEDNDEDLDAYSWSSSTDSAGEIPSLPTNRKILEKIAEKPPPFESPLEDDETPDQTNEHEANQVNVSQLPLNPRGSGISGRPVESTEQLNSSLTIERSQSIQSTDSKQRVETQSHRRSKIEIFDAQDELFDRSICTTIDDSTGKLLNAEETPIKTGDLHSTSASSVISCTPPAINFTSDICNEQIELEYKRKPIPDYDFMKGLETTLQELYVEHQSKKRRLELFQLTNNHQKNSEACEMCRLGLPHGSFFELLRDWKKIEEFRNKS
binds | binds | – | Tpz1-FL (full length Tpz1, yeast two-hybrid construct) (protein, UniProt O14246 1-508) MSNCLKHPWLENGLLNLIKNADVLPIRVFKCQPLQIFEYIRYEHPIRCKLSDTEFYIEAEFSSQSISDLNNFTEKRITSLRGGIVTLGNFLIHLIPSQSGIIPWIQVESFNFQGCEGAVFGNPKAITTSALFNALLQSPYLAALANEFNRSIKEGSSYQEASLSQQEKPNDNTSNSRDIKNNIQFHWKNMTSLSIEECIIPKGQQLILEKESEENTTHGIYLEERKMAQGLHNSVSETPEVKQEDNDEDLDAYSWSSSTDSAGEIPSLPTNRKILEKIAEKPPPFESPLEDDETPDQTNEHEANQVNVSQLPLNPRGSGISGRPVESTEQLNSSLTIERSQSIQSTDSKQRVETQSHRRSKIEIFDAQDELFDRSICTTIDDSTGKLLNAEETPIKTGDLHSTSASSVISCTPPAINFTSDICNEQIELEYKRKPIPDYDFMKGLETTLQELYVEHQSKKRRLELFQLTNNHQKNSEACEMCRLGLPHGSFFELLRDWKKIEEFRNKS
– | – | binds | Tpz1-L449R,W498R,I501R (expressed in fission yeast) (protein, UniProt O14246 1-508) MSNCLKHPWLENGLLNLIKNADVLPIRVFKCQPLQIFEYIRYEHPIRCKLSDTEFYIEAEFSSQSISDLNNFTEKRITSLRGGIVTLGNFLIHLIPSQSGIIPWIQVESFNFQGCEGAVFGNPKAITTSALFNALLQSPYLAALANEFNRSIKEGSSYQEASLSQQEKPNDNTSNSRDIKNNIQFHWKNMTSLSIEECIIPKGQQLILEKESEENTTHGIYLEERKMAQGLHNSVSETPEVKQEDNDEDLDAYSWSSSTDSAGEIPSLPTNRKILEKIAEKPPPFESPLEDDETPDQTNEHEANQVNVSQLPLNPRGSGISGRPVESTEQLNSSLTIERSQSIQSTDSKQRVETQSHRRSKIEIFDAQDELFDRSICTTIDDSTGKLLNAEETPIKTGDLHSTSASSVISCTPPAINFTSDICNEQIELEYKRKPIPDYDFMKGLETTRQELYVEHQSKKRRLELFQLTNNHQKNSEACEMCRLGLPHGSFFELLRDRKKREEFRNKS
binds | binds | – | Tpz1-FL Y439R,L445R (yeast two-hybrid construct) (protein, UniProt O14246 1-508) MSNCLKHPWLENGLLNLIKNADVLPIRVFKCQPLQIFEYIRYEHPIRCKLSDTEFYIEAEFSSQSISDLNNFTEKRITSLRGGIVTLGNFLIHLIPSQSGIIPWIQVESFNFQGCEGAVFGNPKAITTSALFNALLQSPYLAALANEFNRSIKEGSSYQEASLSQQEKPNDNTSNSRDIKNNIQFHWKNMTSLSIEECIIPKGQQLILEKESEENTTHGIYLEERKMAQGLHNSVSETPEVKQEDNDEDLDAYSWSSSTDSAGEIPSLPTNRKILEKIAEKPPPFESPLEDDETPDQTNEHEANQVNVSQLPLNPRGSGISGRPVESTEQLNSSLTIERSQSIQSTDSKQRVETQSHRRSKIEIFDAQDELFDRSICTTIDDSTGKLLNAEETPIKTGDLHSTSASSVISCTPPAINFTSDICNEQIELEYKRKPIPDRDFMKGRETTLQELYVEHQSKKRRLELFQLTNNHQKNSEACEMCRLGLPHGSFFELLRDWKKIEEFRNKS
binds | – | – | LPHGSFFELLRDWKKIEEFRNKS (domain or fragment, UniProt O14246 486-508) [Tpz1-[486–508] (minimum Poz1 interaction domain construct, yeast two-hybrid)]
– | – | binds | Tpz1-[1–485]-L449R (expressed in fission yeast) (domain or fragment, UniProt O14246 1-485) MSNCLKHPWLENGLLNLIKNADVLPIRVFKCQPLQIFEYIRYEHPIRCKLSDTEFYIEAEFSSQSISDLNNFTEKRITSLRGGIVTLGNFLIHLIPSQSGIIPWIQVESFNFQGCEGAVFGNPKAITTSALFNALLQSPYLAALANEFNRSIKEGSSYQEASLSQQEKPNDNTSNSRDIKNNIQFHWKNMTSLSIEECIIPKGQQLILEKESEENTTHGIYLEERKMAQGLHNSVSETPEVKQEDNDEDLDAYSWSSSTDSAGEIPSLPTNRKILEKIAEKPPPFESPLEDDETPDQTNEHEANQVNVSQLPLNPRGSGISGRPVESTEQLNSSLTIERSQSIQSTDSKQRVETQSHRRSKIEIFDAQDELFDRSICTTIDDSTGKLLNAEETPIKTGDLHSTSASSVISCTPPAINFTSDICNEQIELEYKRKPIPDYDFMKGLETTRQELYVEHQSKKRRLELFQLTNNHQKNSEACEMCRLG
no binding | – | – | LPHGSFFELLRDRKKREEFRNKS (domain or fragment, UniProt O14246 486-508) [Tpz1-[486–508] W498R,I501R (yeast two-hybrid construct)]
